According to PubChem BioAssay AID686979 (National Center for Advancing Translational Sciences (NCATS), 2013):
Values joined by “and” are separate entries in the source; they are usually repeats but may differ in a detail not shown here. Equal values may be shown once. The whole screen tested about 420,000 compounds, of which about 50,000 (12%) were called active. The shares of active, inactive and inconclusive entries below differ from those in the screen. Calls come from the whole dose curve; as a rule, active = well fitted inhibition curve with a large enough effect; inconclusive = small, poorly fitted or top-dose-only effect; inactive = flat fitted curve, though single readings scatter. Potencies of inconclusive entries are doubtful fits and often do not repeat.

Assay: qHTS for Inhibitors of human tyrosyl-DNA phosphodiesterase 1 (TDP1): qHTS in cells in presence of CPT; note: nearly all actives have a fitted effect of over 55% in size
Details: chicken DT40 Tdp1-/-;hTDP1 cells + 20 nM CPT, ATP luminescence, 48 h; activity change, negative = growth inhibition: at 46.2 µM (top of the series) unless noted
Method in brief: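 Chicken DT40 Tdp1-/- cells stably complemented with human TDP1 were seeded at 400 cells/well in medium containing 20 nM camptothecin, exposed to pin-transferred compounds, and grown at 37 °C for at least 48 hr. Viability was read as ATP luminescence.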
% is set by controls: 0 for no effect and ±100 for the full control effect; potency is the fitted concentration of half-maximal effect; tags give direction and shape of the fitted curve.

| Compound | Potency | activity change, negative = growth inhibition |
| --- | --- | --- |
| CC(C(=O)N1c2ccccc2CC1C)N1CCN(S(=O)(=O)c2ccccc2F)CC1 (stereo not given) | inconclusive: 20.6 µM [inhibitor, partial curve] | – |
| CN(C)S(=O)(=O)c1ccc(C(=O)N2CC(=O)Nc3ccc(F)cc3C2c2ccc(F)cc2)cc1 (stereo not given) | inactive | – |
| Cc1c(Cl)cccc1NC(=O)C(CCS(C)(=O)=O)N1Cc2ccccc2C1=O (stereo not given) | inconclusive: 0.0046 µM [inhibitor, full curve, poor fit] | – |
| CC(C)NC(=S)NCc1cccs1 | inactive | – |
| O=C(CSc1ccccc1C(=O)N1CCN(c2ccc([N+](=O)[O-])cc2)CC1)N1CCCC1 | active: 11.6 µM | – |
| COc1ccc(Oc2nc(SC)nc3ccsc23)cc1 | inconclusive: 16.4 µM [inhibitor, partial curve] | – |
| Cc1ccc(S(=O)(=O)c2c(Nc3cc(C)ccc3C)sc(C(=O)c3ccc4c(c3)OCO4)c2N)cc1 | active: 6.51 µM | – |
| CC(C)(C)c1ccccc1NC(=O)Nc1nc(C(N)c2ccccc2Cl)cs1 (stereo not given) | inconclusive: 20.6 µM [inhibitor, single point] | – |
| COc1ccc(CCC(=O)N2CCN(S(=O)(=O)c3cccc(Cl)c3)CC2)cc1 | inconclusive: 16.4 µM [inhibitor, single point] | – |
| CC(=O)c1c(C)oc2ccc(N(C(=O)Oc3ccccc3)S(=O)(=O)c3ccccc3)cc12 | inconclusive: 23.1 µM [inhibitor, single point] | – |
| [O-]/C(=C(\C(=S)Nc1ccc(SC(F)F)cc1)[n+]1ccccc1)c1cc(Cl)ccc1Cl | active: 16.4 µM | – |
| COC(=O)c1ccc(CNC(=O)c2ccc(S(=O)(=O)N3CCCCCC3)cc2)cc1 | inactive | – |
| COc1cccc(NC(=O)c2ccc(N3C(=O)C4CC=C(C)CC4C3=O)cc2)c1 (stereo not given) | inconclusive: 20.6 µM [inhibitor, single point] | – |
| C[C@H](c1ccccc1)n1nnc(COCc2ccccc2)c1C#CCOCc1ccccc1 | inconclusive: 29.1 µM [inhibitor, single point] | – |
| COCCn1c(=S)[nH]c2cc(C(=O)NC3CCCCC3C)ccc2c1=O (stereo not given) | – | inconclusive: -30.8% [inhibitor] |
| CCOc1ccc(NC(=O)CSc2nnc3c(n2)[nH]c2ccc(S(=O)(=O)N4CCCCC4)cc23)cc1 | active: 12.6 µM | – |
| COc1ccc(S(=O)(=O)N2CCN(c3ncnc4c(-c5ccccc5)nsc34)CC2)cc1 | active: 16.4 µM | – |
| CSc1cccc(NC(=O)OC2CCCCCCCCCCC2)c1 | inconclusive: 16.4 µM [inhibitor, single point] | – |
| Cc1ccc(C(=O)OCC(=O)c2c[nH]c3ccccc23)cc1NC(=O)c1ccco1 | inconclusive: 29.1 µM [inhibitor, single point] | – |
| CC(CNC(=O)c1cc(-c2ccccc2)n[nH]1)c1ccccc1 (stereo not given) | inconclusive: 29.1 µM [inhibitor, single point] | – |
| O=C(CS(=O)c1ccc(C(F)(F)F)cc1[N+](=O)[O-])Oc1ccccc1 (stereo not given) | active: 5.8 µM | – |
| O=C(N/N=C\C=C\c1ccco1)c1cncc(Br)c1 | inactive | – |
| CCn1nc(C(=O)Nc2cccc3ccccc23)c(Cl)c1Cl | inconclusive: 16.4 µM [inhibitor, partial curve] | – |
| CCCn1c(N)c(C(=O)CSc2ncnc3sccc23)c(=O)n(C)c1=O | inconclusive: 20.6 µM [inhibitor, single point] | – |

| Compound | Potency | activity change, negative = growth inhibition |
| --- | --- | --- |
| CCC(=O)Nc1nc(-c2ccccc2)ns1 | inactive | – |
| Fc1ccccc1Oc1nc(-c2ccncc2)nc2ccccc12 | inconclusive: 29.1 µM [inhibitor, single point] | – |
| COc1ccc(CCN2C(=O)N(c3ccc(C)cc3)C(=O)C2CC(=O)Nc2ccc(F)cc2)cc1 (stereo not given) | inconclusive: 25.9 µM [inhibitor, single point] | – |
| Cn1nnnc1SCc1ccc(C(=O)Nc2ccc(Br)cc2)cc1 | inconclusive: 0.651 µM [inhibitor, full curve, poor fit] | – |
| COc1cc(OC)c2c(c1)C(=O)OC2OC (stereo not given) | inactive | – |
| CCSc1nc(-c2ccccc2)nc2c1CCCC2 | inconclusive: 18.4 µM [inhibitor, single point] | – |
| COCCCC1CCN(Cc2cn[nH]c2-c2cc(OC)c(OC)c(OC)c2)CC1 | inactive | – |
| O=C(COC(=O)C12CC3CC(CC(C3)C1)C2)Nc1nc2c(F)c(F)c(F)cc2s1 | inconclusive: 16.4 µM [inhibitor, single point] | – |
| CCSc1nc2ccccc2c(=O)n1OCC(=O)OC | inactive | – |
| O=C(OCC1(COC(=O)c2cccnc2)CCCC(COC(=O)c2cccnc2)(COC(=O)c2cccnc2)C1O)c1cccnc1 | inactive | – |
| CCOC(=O)[C@H]1[C@H]2COc3ccc(C)cc3[C@@H]2N2C(=O)c3ccccc3NC(=O)[C@@]12C | – | inconclusive: -30.6% [inhibitor] |
| Oc1ccc(Cl)c2c1CCC2 | inactive | – |
| CC(C)[C@@H](CSc1ccccc1)N1CCN(Cc2ccccc2)CCC1=O | inactive and inconclusive: 35.5 µM [inhibitor, single point] | – |
| CCc1nc(N2CCN(C(C)=O)CC2)c2c3c(sc2n1)CC(C(C)(C)C)CC3 (stereo not given) | inconclusive: 14.6 µM [inhibitor, single point] | – |
| O=C(/C=C/c1cn(-c2ccccc2)nc1-c1cccnc1)c1ccco1 | active: 14.6 µM | – |
| Cc1ccc(S(=O)(=O)CC(CN2CCCCC2)N2CCCCC2)cc1 (stereo not given) | inconclusive: 11.6 µM [inhibitor, partial curve] | – |
| CCC(CO)Oc1cc(NCc2cccc(OC)c2)c2ncn(C(C)C)c2c1 (stereo not given) | active: 20.6 µM | – |
| CCOC(=O)N1CCC(NC(=O)CSCc2cnn(-c3ccccc3)c2-n2cccc2)CC1 | inconclusive: 29.1 µM [inhibitor, partial curve, poor fit] | – |
| COc1ccc(C2CC(C(F)(F)F)n3nc(C(=O)NCc4cn(C)nc4C)c(Cl)c3N2)cc1 (stereo not given) | active: 13 µM | – |
| CCCN(CC1CC1)C(=S)NC(=O)c1ccccc1Br | inconclusive: 29.1 µM [inhibitor, single point] | – |
| C#CCOc1ccc(/C=C2/C(=O)ON=C2C)cc1OCC | inconclusive: 18.4 µM [inhibitor, single point] | – |
| O=C1CN2CCC1C/C2=C\c1ccnc2c(Cl)cccc12 (stereo not given) | inconclusive: 18.4 µM [inhibitor, single point] | – |
| COc1ccc(CN2C(=O)N(c3ccc(F)cc3)C(=O)C2CC(=O)Nc2cc(OC)cc(OC)c2)cc1 (stereo not given) | inconclusive: 5.8 µM [inhibitor, full curve, poor fit] | – |
| CCc1ccc(NC(=O)C(NS(=O)(=O)c2cccc3nsnc23)c2ccccc2)cc1 (stereo not given) | inconclusive: 29.1 µM [inhibitor, single point] and inconclusive: 16.4 µM [inhibitor, single point] | – |

| Compound | Potency | activity change, negative = growth inhibition |
| --- | --- | --- |
| CC1=C(C(N)=O)N2C(=O)[C@@H](NC(=O)Cc3ccccc3)C2SC1 (stereo not given in full) | – | inactive: 13.9% [at 9.04 µM] |
| O=C(c1ccc(-n2cnnn2)cc1)N1CCN(C(c2ccccc2)c2ccccc2)CC1 | inconclusive: 23.1 µM [inhibitor, single point] | – |
| CNc1ccc(/C=C/C(=O)c2ccc3c(c2)OCCO3)cc1[N+](=O)[O-] | inconclusive: 29.1 µM [inhibitor, single point] | – |
| CC(C)C(=O)Nc1ccc2oc(-c3cc(F)c(F)cc3Cl)nc2c1 | – | inconclusive: -29.9% [inhibitor] |
| CCc1ccccc1NC(=O)c1cc(S(=O)(=O)N2CCc3ccccc32)cn1C | inactive | – |
| Cn1nc(-c2ccccc2)c(CSc2ccccc2)c1Cl | inconclusive: 29.1 µM [inhibitor, single point] | – |
| O=C(CCc1nc(-c2ccccc2Cl)no1)NC1CCCCC1 | inconclusive: 29.1 µM [inhibitor, partial curve, poor fit] | – |
| COc1ccc(CCNC(=O)c2ccc(N(C)S(=O)(=O)c3ccccc3)cc2)cc1 | inconclusive: 29.1 µM [inhibitor, single point] | – |
| CC(C)NC(=O)N1Cc2cc(C(=O)NC3CCCC3)nc(-c3cccc(-c4cccnc4)c3)c2[C@H]1CCO | inconclusive: 29.1 µM [inhibitor, single point] | – |
| CCN(CC)CC#Cc1ccc(C)cc1 | inactive | – |
| COC(=O)c1c(NC(=O)c2ccccc2)sc2c1CC(C)(C)OC2 | inconclusive: 13 µM [inhibitor, partial curve] | – |
| Cc1csc(NC(=O)CSc2nc(C(C)C)nc3ccccc23)n1 | inconclusive: 29.1 µM [inhibitor, single point] | – |
| Cc1cc2c(Nc3cccc(O)c3)ncnc2s1 | – | inconclusive: -30.7% [inhibitor] |
| O=C(CCNC(=O)c1ccc(Br)cc1)NCC1COc2ccccc2O1 (stereo not given) | inconclusive: 0.461 µM [inhibitor, full curve, poor fit] | – |
| COc1ccc(CNc2ncnc3nc[nH]c23)cc1OC | – | inconclusive: -20.7% [inhibitor] |
| COc1cc(/C=N/Nc2nc(C)cc(C)n2)ccc1O | inactive | – |
| Cc1ccccc1NC(=S)NC(NC(=O)c1ccco1)C(Cl)(Cl)Cl (stereo not given) | inactive | – |
| Cc1cccc(NC(=O)c2sc3nc(-c4ccccc4)cn3c2C)c1C | active: 0.517 µM | – |
| COc1ccccc1N1C(=O)c2ccccc2NC1C(OC)OC (stereo not given) | inactive | – |
| COc1ccc(-c2noc(CCCC(=O)O)n2)cc1 | – | inconclusive: -26.6% [inhibitor] |
| COC(=O)c1ccccc1NC(=S)NC(=O)c1ccc2c(c1)OCO2 | inconclusive: 1.3 µM [inhibitor, full curve, poor fit] | – |
| Cc1ccnc(NC(=O)c2ccc(Cl)c(S(=O)(=O)N3CCCC3)c2)c1 | inconclusive: 25.9 µM [inhibitor, single point] | – |
